# Results taken from patent publication EP4775595A1 (Beijing Tuo Jie Biopharmaceutical Co. Ltd., dated 2026).
# T1: hTSHR-ECD-avi-his (human TSHR extracellular region, 6 amino acid mutations) (human)
# T1 chain: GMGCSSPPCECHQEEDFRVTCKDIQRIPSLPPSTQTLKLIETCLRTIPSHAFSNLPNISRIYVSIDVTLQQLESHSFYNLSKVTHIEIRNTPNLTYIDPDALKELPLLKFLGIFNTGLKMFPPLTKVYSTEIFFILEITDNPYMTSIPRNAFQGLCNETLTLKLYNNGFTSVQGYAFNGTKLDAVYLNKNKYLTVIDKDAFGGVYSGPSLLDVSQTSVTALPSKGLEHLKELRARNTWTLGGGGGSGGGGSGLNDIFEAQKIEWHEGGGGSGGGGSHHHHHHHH
# T2: full-length rat TSHR on transiently transfected HEK293 cells (rat, UniProt P21463 22-764)
# T2 sequence (looked up): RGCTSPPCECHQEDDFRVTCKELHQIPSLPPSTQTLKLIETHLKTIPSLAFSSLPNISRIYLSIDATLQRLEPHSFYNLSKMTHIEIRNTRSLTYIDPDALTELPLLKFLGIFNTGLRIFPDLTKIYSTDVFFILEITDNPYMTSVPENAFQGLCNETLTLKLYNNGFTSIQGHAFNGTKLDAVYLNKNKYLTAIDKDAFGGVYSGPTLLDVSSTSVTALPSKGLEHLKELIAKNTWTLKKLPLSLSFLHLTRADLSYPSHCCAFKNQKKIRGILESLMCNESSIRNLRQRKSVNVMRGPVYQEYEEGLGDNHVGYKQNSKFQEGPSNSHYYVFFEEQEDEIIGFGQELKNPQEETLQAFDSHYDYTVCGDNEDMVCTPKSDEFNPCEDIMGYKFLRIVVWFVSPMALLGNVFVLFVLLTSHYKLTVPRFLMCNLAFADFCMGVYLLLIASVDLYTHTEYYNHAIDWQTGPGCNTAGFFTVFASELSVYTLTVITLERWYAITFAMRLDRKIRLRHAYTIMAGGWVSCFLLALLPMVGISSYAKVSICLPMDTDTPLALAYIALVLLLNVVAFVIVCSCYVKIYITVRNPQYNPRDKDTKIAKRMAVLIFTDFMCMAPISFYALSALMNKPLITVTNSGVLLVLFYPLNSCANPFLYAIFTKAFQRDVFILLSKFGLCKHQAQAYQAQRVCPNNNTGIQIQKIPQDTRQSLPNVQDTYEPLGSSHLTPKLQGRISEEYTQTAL
# B1: CB16-hu2-IgG1 (Fc fusion)
# chain: EVQLLESGGGLVQPGGSLRLSCAGPGYTSSCMGWFRQAPGKERTGVAAIYIGGRGTDYADSVKGRFTISQDNAKNTLYLQMNSLRAEDTAVYYCWAGIEYDCYSGHWRDWAFSRERGFWGQGTLVTVSS[in this place human IgG1 Fc with changes]
# notes: VHH fused directly to human IgG1 Fc
# B2: CB16-IgG1 (Fc fusion)
# chain: EVQLVESGGGPVQAGGSLRLSCAGPGYTSSCMGWFRQAPGKERTGVAAIYIGGRGTDYADSVKGRFTISQDNAKNTLYLQMNSLKPEDTAMYYCWAGIEYDCYSGHWRDWAFSRERGFWGQGTQVTVSS[in this place human IgG1 Fc with changes]
# notes: as for B1
# B3: CB16-hu1-IgG1 (Fc fusion)
# chain: EVQLLESGGGLVQPGGSLRLSCAGPGYTSSCMGWFRQAPGKEREGVSAIYIGGRGTDYADSVKGRFTISQDNSKNTLYLQMNSLRAEDTAVYYCWAGIEYDCYSGHWRDWAFSRERGFWGQGTLVTVSS[in this place human IgG1 Fc with changes]
# notes: as for B1
# B4: CB16-hu3-IgG1 (Fc fusion)
# chain: EVQLLESGGGLVQPGGSLRLSCAGPGYTSSCMGWFRQAPGKERTGVSAIYIGGRGTDYADSVKGRFTISQDNSKNTLYLQMNSLRAEDTAVYYCWAGIEYDCYSGHWRDWAFSRERGFWGQGTLVTVSS[in this place human IgG1 Fc with changes]
# notes: as for B1
# B5: IG05-hu5-1-IgG1 (Fc fusion)
# chain: EVQLVESGGGLVQPGGSLRLSCAASGFTFGTFGMAWFRQAPGKEREGVSAISASSGRTYYADSVKGRFTISRDNSKNTLYLQMNSLRAEDTAVYYCAVRSKQGAGYGFWYEGRLYGYWGQGTLVTVSS[in this place human IgG1 Fc with changes]
# notes: as for B1
# B6: IG06-IgG1 (Fc fusion)
# chain: QVQLVESGGGSVQAGGSLRLSCAASRYIVSTRCLGWVRQAPGNEREEIATIDTAGRPTYADSVKGRFTISKDGAKNFLYLQMNSLKPEDTAMYYCAAASSDNCRYFPSNLGQGTQVTVSS[in this place human IgG1 Fc with changes]
# notes: as for B1
# Experiments:
# [1] = molecular target: T1, hTSHR-ECD-avi-his (human TSHR …); assay: SPR (Biacore T200), antibody captured on Protein A chip, human TSHR as analyte
# [2] = molecular target: T2, full-length rat TSHR on transiently …; assay: cell-based or functional assay
# [3] = molecular target: full-length mouse TSHR on transiently transfected HEK293 cells (mouse, UniProt P47750 22-764); assay: cell-based or functional assay
# Chain of UniProt P47750 (P47750 22-764): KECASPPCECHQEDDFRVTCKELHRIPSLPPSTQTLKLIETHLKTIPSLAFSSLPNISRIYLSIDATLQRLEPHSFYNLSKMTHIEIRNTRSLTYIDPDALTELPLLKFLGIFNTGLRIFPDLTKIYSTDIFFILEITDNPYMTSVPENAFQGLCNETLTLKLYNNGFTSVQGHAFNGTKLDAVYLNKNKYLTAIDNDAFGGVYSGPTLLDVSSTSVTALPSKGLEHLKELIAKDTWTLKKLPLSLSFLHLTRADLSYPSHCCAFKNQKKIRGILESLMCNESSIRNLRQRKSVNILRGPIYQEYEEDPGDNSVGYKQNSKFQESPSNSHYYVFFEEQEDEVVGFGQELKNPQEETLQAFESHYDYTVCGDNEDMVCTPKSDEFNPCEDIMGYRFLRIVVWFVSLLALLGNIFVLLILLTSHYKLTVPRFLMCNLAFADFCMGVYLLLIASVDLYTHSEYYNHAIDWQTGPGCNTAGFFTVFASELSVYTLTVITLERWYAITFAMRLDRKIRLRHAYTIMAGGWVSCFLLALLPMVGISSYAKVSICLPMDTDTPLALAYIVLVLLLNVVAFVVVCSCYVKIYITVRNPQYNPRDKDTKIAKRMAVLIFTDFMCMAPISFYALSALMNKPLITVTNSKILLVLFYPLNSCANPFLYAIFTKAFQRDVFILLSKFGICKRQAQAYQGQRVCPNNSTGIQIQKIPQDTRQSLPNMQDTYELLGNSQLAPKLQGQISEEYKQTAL
# [4] = molecular target: human IGF-1R on human non-small cell lung cancer cells (A549) (human, UniProt P08069 31-1367); assay: cell-based or functional assay
# [5] = molecular target: T3, hIGF-1R-ECD-avi-his (human IGF-1R extracellular region) (human, UniProt P08069 31-935); assay: SPR (Biacore T200), antigen captured by anti-His antibody on CM5 chip, antibody as analyte
# T3 construct: It was captured on the chip through its His tag
# T3 sequence (P08069 31-1367): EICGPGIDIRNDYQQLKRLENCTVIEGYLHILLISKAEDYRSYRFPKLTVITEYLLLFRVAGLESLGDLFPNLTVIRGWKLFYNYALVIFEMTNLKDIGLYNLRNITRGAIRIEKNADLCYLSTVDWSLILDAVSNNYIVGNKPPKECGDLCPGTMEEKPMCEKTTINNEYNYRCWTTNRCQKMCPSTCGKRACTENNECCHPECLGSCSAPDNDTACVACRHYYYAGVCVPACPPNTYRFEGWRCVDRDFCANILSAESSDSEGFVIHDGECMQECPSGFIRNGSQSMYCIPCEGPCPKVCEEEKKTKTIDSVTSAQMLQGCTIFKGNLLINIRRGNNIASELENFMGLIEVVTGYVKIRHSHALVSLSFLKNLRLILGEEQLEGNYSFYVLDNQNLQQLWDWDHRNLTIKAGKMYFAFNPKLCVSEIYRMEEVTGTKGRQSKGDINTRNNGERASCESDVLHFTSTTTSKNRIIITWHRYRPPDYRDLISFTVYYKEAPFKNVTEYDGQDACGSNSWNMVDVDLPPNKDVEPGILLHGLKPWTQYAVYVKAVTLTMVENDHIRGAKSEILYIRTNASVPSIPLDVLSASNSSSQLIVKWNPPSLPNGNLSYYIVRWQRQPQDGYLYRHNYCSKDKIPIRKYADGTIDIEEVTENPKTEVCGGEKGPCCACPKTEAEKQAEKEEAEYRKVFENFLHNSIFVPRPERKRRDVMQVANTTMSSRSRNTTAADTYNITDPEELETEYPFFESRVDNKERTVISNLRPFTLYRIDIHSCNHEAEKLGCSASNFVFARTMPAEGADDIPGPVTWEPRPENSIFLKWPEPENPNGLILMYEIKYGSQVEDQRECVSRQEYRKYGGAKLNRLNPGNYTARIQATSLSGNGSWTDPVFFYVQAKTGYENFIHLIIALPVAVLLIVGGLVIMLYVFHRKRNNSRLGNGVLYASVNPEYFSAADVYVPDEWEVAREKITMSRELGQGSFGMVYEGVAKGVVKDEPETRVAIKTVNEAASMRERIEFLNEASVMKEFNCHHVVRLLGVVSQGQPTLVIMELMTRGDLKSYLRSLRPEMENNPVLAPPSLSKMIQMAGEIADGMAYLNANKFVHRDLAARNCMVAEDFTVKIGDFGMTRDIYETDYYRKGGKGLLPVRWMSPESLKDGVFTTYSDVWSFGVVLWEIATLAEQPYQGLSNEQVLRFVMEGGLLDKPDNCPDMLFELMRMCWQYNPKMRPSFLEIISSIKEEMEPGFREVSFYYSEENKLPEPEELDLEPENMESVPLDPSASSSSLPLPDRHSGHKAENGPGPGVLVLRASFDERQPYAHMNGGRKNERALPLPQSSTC
# [6] = molecular target: mouse IGF-1R on mouse myoblasts (C2C12) (mouse, UniProt Q60751 31-1373); assay: cell-based or functional assay
# [7] = molecular target: T4, mouse IGF-1R (Acro, Cat. IGR-M5223) (mouse, UniProt Q60751 31-936, limits assumed); assay: SPR (Biacore T200), antigen captured by anti-His antibody on CM5 chip, antibody as analyte
# T4 construct: Bought reagent; also called murine IGF-1R
Kd [1] [nM],koff [1] [s⁻¹],kon [1] [M⁻¹ s⁻¹],"IC50 (nM), inhibition of IGF1-induced pAKT signaling in A549 cells [4] [nM]",Kd [5] [nM],koff [5] [s⁻¹],kon [5] [M⁻¹ s⁻¹],further results,Binder
5.54,0.000988,178000,–,–,–,–,–,B1
5.67,0.00107,188000,–,–,–,–,–,B2
46,0.00657,143000,–,–,–,–,–,B3
8.14,0.00136,167000,–,–,–,–,"IC50, inhibition of bovine TSH-stimulated cAMP production in HEK293-rat TSHR cells [2]: 3.66 nM; IC50, inhibition of bovine TSH-stimulated cAMP production in HEK293-mouse TSHR cells [3]: 5.94 nM",B4
–,–,–,0.194,0.00211,1.87e-05,8.87e+06,–,B5
–,–,–,0.898,0.0306,0.000155,5.07e+06,"IC50 (nM), inhibition of IGF1-induced pAKT signaling in C2C12 cells [6]: 62.2 nM; Kd [7]: 0.0943 nM; koff [7]: 0.000496 s⁻¹; kon [7]: 5.27e+06 M⁻¹ s⁻¹",B6
